Results published in the RNAGym collection of RNA variant scans (doi:10.1073/pnas.2313332121).
This sample is rich in variants without activity.

B1: TPR 5TU (parent)
chain: GGAUCUUCUCGAUCUAACAAAAAAGACAAAUCUGCCACAAAGCUUGAGAGCAUCUUCGGAUGCAGAGGCGGCAGCCUUCGGUGGCGCGAUAGCGCCAACGUUCUCAACUAUGACACGCAAAACGCGUGCUCCGUUGAAUGGAGUUUAUCAUG

Variants of: B1
Test: polymerase ribozyme fitness, log enrichment relative to wild type (log ratio); higher = more active; in vitro selection for triplet polymerase activity
How it was run: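 Fitness measures genotype enrichment against wild-type enrichment on a logarithmic scale, with inverse-variance-weighted averaging of replicates. The logarithm is base 2, and genotypes were kept only with ≥10 input reads and ≥1 read per output in Illumina sequencing. The sequenced libraries came from one triplicate in vitro selection round, including frozen incubation at −7 °C, of PCR-built, transcribed mutant libraries of each subunit of a heterodimeric triplet polymerase ribozyme.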

Compared with C85G C132G, C85A A121U U127C is higher in “polymerase ribozyme fitness (log ratio)” value: at most -4.2 for the first, -1.47 for the second.

First: C85U U102A U104G A107U C114A A138G
Second: C85U C95A U127G
The “polymerase ribozyme fitness (log ratio)” value of the first is lower: at most -4.2 for the first, -3.88 for the second.

First: G83U A89U A91G
Second: G84A G133C
The “polymerase ribozyme fitness (log ratio)” value of the first is lower: at most -4.2 for the first, -1.78 for the second.

C85U G94A A107G and C85G C108G U134A G136C A142C cannot be ordered by “polymerase ribozyme fitness (log ratio)” value: at most -4.2 for the first, at most -4.2 for the second.

G86U A119G A150C and G83A C85U A113C U145C G152U cannot be ordered by “polymerase ribozyme fitness (log ratio)” value: at most -4.2 for the first, at most -4.2 for the second.

First: G83C C129G A137C U145C
Second: G86U A115G
The “polymerase ribozyme fitness (log ratio)” value of the first is lower: at most -4.2 for the first, -2.39 for the second.

Going from C85U G126A A142G to C85U C95U C116A G117A A119G, the “polymerase ribozyme fitness (log ratio)” value falls from -0.307 to at most -4.2.

G84U A91U A107C G136C and G84U A115U G143U cannot be ordered by “polymerase ribozyme fitness (log ratio)” value: at most -4.2 for the first, at most -4.2 for the second.

C85G C118U A121G U135A U144A U148G and G83C A97G C108G cannot be ordered by “polymerase ribozyme fitness (log ratio)” value: at most -4.2 for the first, at most -4.2 for the second.

G83C C85G U102C and C87A C103A C114U cannot be ordered by “polymerase ribozyme fitness (log ratio)” value: at most -4.2 for the first, at most -4.2 for the second.

G86C C131G and G84C C85A C129U U146G cannot be ordered by “polymerase ribozyme fitness (log ratio)” value: at most -4.2 for the first, at most -4.2 for the second.

C85G G92A G133A G140A and C85U A91G G126C G140U cannot be ordered by “polymerase ribozyme fitness (log ratio)” value: at most -4.2 for the first, at most -4.2 for the second.

C87A A142U and G83C G84C C95G U102G A107G cannot be ordered by “polymerase ribozyme fitness (log ratio)” value: at most -4.2 for the first, at most -4.2 for the second.

Compared with G83C U104G C116U, C85U U127G is lower in “polymerase ribozyme fitness (log ratio)” value: -1.3 for the first, -3.46 for the second.

G84U C103G A106G and G86U C93U A120C U127A cannot be ordered by “polymerase ribozyme fitness (log ratio)” value: at most -4.2 for the first, at most -4.2 for the second.

Going from G84U C96A to G83A G94U G128U U145G, the “polymerase ribozyme fitness (log ratio)” value falls from -2.84 to at most -4.2.

Going from U82G G143A to C87A C93G C132A C149G, the “polymerase ribozyme fitness (log ratio)” value falls from -0.245 to at most -4.2.

G84A A98G A110G and C85G C96U C99G C114A A115U cannot be ordered by “polymerase ribozyme fitness (log ratio)” value: at most -4.2 for the first, at most -4.2 for the second.

Compared with C85A C87G C96A C125U, C85A G136A is higher in “polymerase ribozyme fitness (log ratio)” value: at most -4.2 for the first, -1.05 for the second.

Compared with C85A A91U G140C, G86U G92C A98G A150U is higher in “polymerase ribozyme fitness (log ratio)” value: at most -4.2 for the first, -2.26 for the second.

C87A C99U G136C G141A U146G and C85G G92C A107C U139C cannot be ordered by “polymerase ribozyme fitness (log ratio)” value: at most -4.2 for the first, at most -4.2 for the second.

First: G86U A147G
Second: C87A C93U A106C A113U U151A
The “polymerase ribozyme fitness (log ratio)” value of the first is higher: -3.45 for the first, at most -4.2 for the second.

Going from C85U A89U A106G C125G to G84U C103G, the “polymerase ribozyme fitness (log ratio)” value falls from -1.15 to at most -4.2.

Going from G86U C87A U130G to G84A U127C, the “polymerase ribozyme fitness (log ratio)” value rises from at most -4.2 to -1.91.

First: G84A G128U
Second: U82G G140A G152A
The “polymerase ribozyme fitness (log ratio)” value of the first is higher: -3.84 for the first, at most -4.2 for the second.

G83U U127C G143A and G83U G126A U148A cannot be ordered by “polymerase ribozyme fitness (log ratio)” value: at most -4.2 for the first, at most -4.2 for the second.

C85G C99U C129G and G83C C132U A142U cannot be ordered by “polymerase ribozyme fitness (log ratio)” value: at most -4.2 for the first, at most -4.2 for the second.

First: C85G C129G
Second: G84A G86A G88C A113U C114A
The “polymerase ribozyme fitness (log ratio)” value of the first is higher: -4.11 for the first, at most -4.2 for the second.

G83A A89G U109G U130G C132G and C87A C99G U104G U135G cannot be ordered by “polymerase ribozyme fitness (log ratio)” value: at most -4.2 for the first, at most -4.2 for the second.

First: G83U C129A
Second: C85A G126U G140C
The “polymerase ribozyme fitness (log ratio)” value of the first is higher: -4.02 for the first, at most -4.2 for the second.

First: C85U G94C G143A
Second: C85U C103G C108U A115U G143A
The “polymerase ribozyme fitness (log ratio)” value of the first is higher: -1.78 for the first, at most -4.2 for the second.

G86A C103G A147G and G83C U102G C103G C118U cannot be ordered by “polymerase ribozyme fitness (log ratio)” value: at most -4.2 for the first, at most -4.2 for the second.

Going from C85A C118U to C85A C118G, the “polymerase ribozyme fitness (log ratio)” value falls from -0.342 to -0.907.

C87A A91U C95U G100A C125U U146G and G86U C95A C96U A113U U148G C149G cannot be ordered by “polymerase ribozyme fitness (log ratio)” value: at most -4.2 for the first, at most -4.2 for the second.

C85U G112A C114U and C85U G88A U151G cannot be ordered by “polymerase ribozyme fitness (log ratio)” value: at most -4.2 for the first, at most -4.2 for the second.

Going from C85U C95A G136U A138C to G84U C116A, the “polymerase ribozyme fitness (log ratio)” value rises from at most -4.2 to -0.432.

G83A U139C U144G and C85U C87G G140C cannot be ordered by “polymerase ribozyme fitness (log ratio)” value: at most -4.2 for the first, at most -4.2 for the second.

G83C C87A and C85G G128A A138U cannot be ordered by “polymerase ribozyme fitness (log ratio)” value: at most -4.2 for the first, at most -4.2 for the second.

First: G86C C99U
Second: C87A A89C G126C U144G U146C A150C
The “polymerase ribozyme fitness (log ratio)” value of the first is higher: -2.83 for the first, at most -4.2 for the second.

First: C85U U134C
Second: C85U A91U C95G
The “polymerase ribozyme fitness (log ratio)” value of the first is higher: -1.76 for the first, at most -4.2 for the second.

C85G U135C G136A U146G and C85A U139A cannot be ordered by “polymerase ribozyme fitness (log ratio)” value: at most -4.2 for the first, at most -4.2 for the second.

In the case of C85A U139G, the “polymerase ribozyme fitness (log ratio)” value is reported as -1.11.
